Assay results as given in PubChem BioAssay AID938 (National Center for Advancing Translational Sciences (NCATS), 2007).
Screen size: about 73,000 compounds; about 1,800 (2.5%) were called active. Inconclusive results, whose numbers are uncertain, are shown with a selection of clear calls. Calls come from the whole dose curve; as a rule, active = well fitted activation curve with a large enough effect; inconclusive = small, poorly fitted or top-dose-only effect; inactive = no such curve, though single readings can be large or run the other way. Potencies of inconclusive entries are left out as doubtful fits.

Experiment: qHTS Assay for Agonists of the Thyroid Stimulating Hormone Receptor: Activators of Intracellular cAMP Concentrations in Parental HEK 293; note: nearly all actives have a fitted effect of over 55% in size; for activation: % of control where 0% means no effect
Settings: parental HEK293 CNG cAMP sensor, membrane potential fluorescence; activation: at 57.1 µM (top of the series) unless noted
How it was run: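 Parental HEK 293 cells stably expressing a modified CNG channel (no TSHR) report cAMP rise as membrane depolarization. Membrane potential dye with 100 uM RO 20-1724 was loaded for 60 min at room temperature, then compound added for 30 min; fluorescence read at 590 nm.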
Potency is the fitted concentration of half-maximal effect; tags give direction and shape of the fitted curve.

Structure (SMILES) | Potency | activation
CCn1c(SCC(=O)Nc2ccccc2F)nc2c(c1=O)SC(C)C2 (stereo not given) | inconclusive [activator, partial curve] | 
CCOc1ccc(OCc2cccc(C(=O)N3CCOCC3)c2)cc1 |  | inactive: 2.54%
Cc1noc(C)c1-c1cc(NCCN2CCOCC2)ncn1 |  | inactive: 7.66%
Cc1ccc(S(=O)(=O)CCSc2nc(C)cc(C)c2C#N)cc1 | inconclusive [activator, partial curve] | 
CCOc1ccccc1NC(=O)CC1Nc2ccccc2NC1=O (stereo not given) |  | inactive: -19%
Cn1cc(SCC(=O)NCC2CCCO2)c2ccccc21 (stereo not given) | inconclusive [activator, single point] | 
CCCCC(CC)Cn1c2nc3ccccc3nc2c2c(=N)oc(C)nc21 (stereo not given) | inconclusive [activator, partial curve] | 
COc1c(F)c(F)c(C(=O)Nc2ccc(NC(=O)c3ccco3)cc2)c(F)c1F |  | inactive: -8.16%
Cc1cccc(-c2noc(CCC(=O)NCc3ccccc3)n2)c1 | inconclusive [activator, single point] | 
Cn1c(=O)c2c(nc(CN3CCCCC3)n2Cc2c(F)cccc2Cl)n(C)c1=O | inconclusive [activator, single point] | 
Cc1[nH]c2ccccc2c1C(=O)COC(=O)C1CC(=O)N(Cc2ccco2)C1 (stereo not given) | inconclusive [activator, single point] | 
O=C(COc1ccc(S(=O)(=O)NC2CCCCC2)cc1Cl)NCC1CCCO1 (stereo not given) |  | inactive: 0.228%
Cc1cc(C)c2c(CN3CCN(Cc4ccc5c(c4)OCO5)CC3)cc(=O)oc2c1C |  | inactive: 5.41%
CCN(CC)C(=O)Oc1ccc2c(=O)c(-c3ccc(OC)cc3)c(C)oc2c1 |  | inactive: 22.7%
COc1ccc2cc3cc(C(=O)NCC4COc5ccccc5O4)oc3nc2c1 (stereo not given) | inconclusive [activator, single point] | 
Cc1nc2cc(N3CCCCC3)c(NC(=O)c3cccnc3)cc2c(=O)n1Cc1ccccc1 | inconclusive [activator, single point] | 
O=C(C1CCN(S(=O)(=O)c2cccc3cccnc23)CC1)N1CCCC1 |  | inactive: 2.27%
CCC(C)(C(=O)NC1CCCCC1)N(Cc1ccco1)C(=O)c1cnccn1 (stereo not given) | active: 3.16 µM | 
Nc1nonc1-c1nc2ccccc2n1Cc1ccc(F)cc1Cl | active: 15.8 µM | 
CC(C)Sc1nc2c(cnn2-c2ccccc2)c(=O)[nH]1 |  | inactive: 12.5%
COc1ccccc1-n1c(SCC(N)=O)nnc1-c1ccccc1 | inconclusive [activator, single point] | 
CC(C)C[C@@H](CC(=O)N[C@@H](CCC(=O)O)CC(=O)O)NC(=O)[C@@H]1CCCC[C@H]1NC(=O)C[C@H](CCCN)NC(=O)C[C@H](CO)NC(=O)[C@@H]1CNCC[C@H]1N | inconclusive [activator, single point] | 
COc1ccc(-c2nc3cc(NC(=O)c4ccc5c(c4)OCO5)ccc3o2)cc1 | inconclusive [activator, single point] | 
CCCn1c(Nc2nc3ccccc3n2C)nc2ccccc21 |  | inactive: -1.06%

Structure (SMILES) | Potency | activation
COc1cc2nc(NCCN3CCOCC3)n3nc(-c4ccccc4)nc3c2cc1OC |  | inactive: 5.53%
O=C(Nc1cccc(F)c1)N1CCC2(CCNCC2)CC1 |  | inactive: -5.46%
O=C1[C@H]2[C@H]3[C@H](O)[C@H](O)C/C(=N/OC[C@@H](O)COCc4ccco4)[C@@H]3CC[C@@H]2C(=O)N1c1cccc(Oc2ccccc2)c1 |  | inactive: 7% [at 11.4 µM]
COc1ccc([C@@H](Nc2ccccn2)c2cc(C(C)(C)C)cc(C(C)(C)C)c2O)cc1 |  | inactive: 1.47% [at 11.4 µM]
CC(C)c1nnc(NC(=O)c2cccs2)s1 |  | inactive: 5.65%
Cc1ccc(C(C)C)c(OCC(=O)Nc2ccc(N3CCN(S(C)(=O)=O)CC3)cc2)c1 |  | inactive: 5.42%
N#Cc1nc(COc2ccccc2)oc1N1CCCCC1 | inconclusive [activator, partial curve] | 
CCOC(=O)c1c(NC(=O)c2ccc(S(=O)(=O)N3CCOCC3)cc2)sc2c1CCN(C)C2 |  | inactive: -9.59%
COC(=O)c1sccc1NC(=O)Cn1nnc(-c2ccc(C)cc2)n1 | inconclusive [activator, partial curve] | 
O=C(CSc1nc(-c2ccc(F)cc2)cs1)N1CCN(C(=O)c2ccco2)CC1 | inconclusive [activator, single point] | 
COc1ccc(C(=O)N2CCC[C@@]3(CCN(Cc4ccncc4)C3)C2)cc1 |  | inactive: 19.8%
O=C(NC1CCCCC1)N(Cc1ccccc1)Cc1ccco1 | active: 15.8 µM | 
O=C(Nc1nccs1)c1ccc(S(=O)(=O)NCC2CCCCC2)cc1 | inconclusive [activator, partial curve] | 
COc1cc2[nH]c(=O)n(CCCCCC(=O)NCCCN3CCCC3=O)c(=O)c2cc1OC | inconclusive [activator, single point] | 
C/C=C/COC(=O)c1[nH]c2c(c1C)C(=O)CC(c1ccco1)C2 (stereo not given) | inconclusive [activator, partial curve] | 
COc1ccccc1NC(=O)N(Cc1ccccc1)c1ccccn1 | inconclusive [activator, partial curve] | 
CCOc1ccc(OCC)c(S(=O)(=O)N2CCCCC2)c1 | inconclusive [activator, partial curve] | 
CCOC(=O)C1CCCN(C(=O)C2CCN(Cc3nc(-c4ccc(Cl)cc4)oc3C)CC2)C1 (stereo not given) | inconclusive [activator, single point] | 
CCCOC(=O)C1[C@H]2C(=O)N(C(C)c3ccc(OC)cc3)C[C@]23C=C[C@H]1O3 (stereo not given in full) |  | inactive: 2.04%
CCP(=O)(c1ccccc1)C(C)(C)O (stereo not given) | inconclusive [activator, partial curve] | 
CCCc1nc2ccccc2c(C(=O)OCc2nnc(-c3cc(OC)c(OC)c(OC)c3)o2)c1CC | inconclusive [activator, single point] | 
CN(Cc1ccco1)c1nc(-c2cccnc2)nc2ccccc12 | active: 25.1 µM | 
CC(C)CC(NC(=O)C1CCC(C)CC1)C(=O)N1CCN(c2ccccn2)CC1 (stereo not given) |  | inactive: 6.71%
Brc1cccc(-c2n[nH]c(-c3ccccc3)n2)c1 | inconclusive [activator, single point] | 

Structure (SMILES) | Potency | activation
O=C(CSc1nc(-c2ccco2)cc(C(F)(F)F)n1)Nc1ccc(C(=O)N2CCCCC2)cc1 |  | inactive: 8.79%
CN(C)c1nc(NCc2ccccc2)nc(Oc2ccc(=O)[nH]n2)n1 |  | inactive: 12.1%
CCc1ccc2[nH]c(=O)c(CN(Cc3ccccc3OC)Cc3nnnn3Cc3ccco3)cc2c1 | inconclusive [activator, partial curve] | 
O=C(NCC1CCCO1)c1cc(-c2ccncc2)nc2ccc(S(=O)(=O)N3CCOCC3)cc12 (stereo not given) | inconclusive [activator, single point] | 
COC(=O)c1ccc(C(NC(=O)OCc2ccccc2)/C(I)=C/[C@@H](C)C(=O)NCC2CC2)cc1 (stereo not given in full) | inconclusive [activator, partial curve] | 
Cc1nc(NCc2ccccc2)c2nc(-c3ccccc3)n(CCCN3CCOCC3)c2n1 | inconclusive [activator, single point] | 
CC1(C)Oc2ccc3ccc(=O)oc3c2/C(=C/N)C1=O | inconclusive [activator, single point] | 
CC(=O)NC(CCS(C)(=O)=O)C(=O)Nc1cccc(C(C)=O)c1 (stereo not given) | inconclusive [activator, single point] | 
CCCC(=O)c1ccc(N2CCN(C(=O)c3ccccc3Br)CC2)c(F)c1 | inconclusive [activator, partial curve] | 
C=C[C@@]1(C)CC(=O)[C@@]2(O)[C@@]3(C)[C@H](O)CCC(C)(C)[C@@H]3[C@H](O)[C@H](OC(C)=O)[C@]2(C)O1 | active: 0.501 µM | 
COc1ccc(CCNC2CC(=O)N(CCc3ccccc3)C2=O)cc1OC (stereo not given) | inconclusive [activator, single point] | 
CCn1c(SCC(=O)N2CCN(c3ccccc3)CC2)nnc1-c1cc2cc(Cl)ccc2o1 | inconclusive [activator, single point] | 
O=C(CCc1n[nH]c(=O)[nH]c1=O)N1CCOCC1 | inconclusive [activator, single point] | 
[O-]/[N+](=N\O)c1ccccc1 |  | inconclusive: 40.6% [activator]
O=C(Nc1c(C(=O)NCc2ccco2)cnn1-c1ccccc1)c1cccc(F)c1 | inconclusive [activator, single point] | 
COc1ccccc1NC(=O)CN1C(=O)C(C)Oc2ccccc21 (stereo not given) | inconclusive [activator, partial curve] | 
Cc1ccc(-c2nnc3n2N=C(c2ccccc2Br)CS3)cc1 | inconclusive [activator, partial curve] | 
COc1ccc(CCNc2nc(C)nc3c2oc2ccccc23)cc1OC | inconclusive [activator, single point] | 
Cc1ccc(N=Cc2ccc(O)cc2O)cc1F | inconclusive [activator, single point] | 
O=c1c2ccccc2nc(SCc2cn3ccsc3n2)n1-c1ccc(F)cc1 | inconclusive [activator, single point] | 
O=S(=O)(c1cccs1)N1CN(Cc2cccs2)c2nc3ccccc3nc21 | inconclusive [activator, single point] | 
CCCCOC(=O)c1ccc(NC(=O)c2cnccn2)cc1 |  | inactive: 7.82%
